# Results taken from patent publication US12364768B2, “Nectin-4 antibody conjugates and uses thereof” (ARARIS BIOTECH AG, priority 2020, dated 2025).
# Tested on: human PBMCs in the presence of the Nectin-4 expressing MDA-MB-175-VII tumor cell line
# Assay: Human PBMC TNF-α production in co-culture with Nectin-4 expressing MDA-MB-175-VII cells
# Format: cell-based
# Conditions: PBMC:MDA-MB-175-VII 5:1, 24 hours
# Experimental: Production of TNF-α from peripheral blood mononuclear cells (PBMCs) co-cultured with Nectin-4 expressing tumor cell lines when contacted with anti-Nectin-4-TLR8 agonist conjugates was examined. Briefly, PBMCs were isolated from normal human donor peripheral blood using SepMate™-50 PBMC Isolation Tubes (STEMCELL Technologies) according to manufacturer's instructions. Isolated PBMCs were cultured with the Nectin-4 expressing tumor cell line MDA-MB-175-VII (ATCC) or the Nectin-4 negative cell line HEK-293 (ATCC) at a 5:1 ratio in the presence of titrated concentrations of anti-Nectin-4-TLR8 agonist antibody conjugates, unconjugated anti-Nectin-4 antibody controls, or an isotype control-TLR8 agonist conjugate. After 24 hours, the cell-free supernatants were collected and stored at −80° C. prior to analysis. TNF-α levels in the cell-free supernatants were quantified using the TNF-α (human) AlphaLISA® Detection Kit (Perkin Elmer) according to manufacturer's instructions.
molecule,measurement,value
"hzD6.1C-Compound 2.14: ""anti-Nectin-4-TLR8 agonist immunoconjugates (hzD6.2C-Compound 2.14, hzD6.1C-Compound 2.14, ...)""; ""humanized derivatives"" (conjugate) heavy: EVQLVESGGGLVQPGGSLRLSCAASGFTFSNYDMSWVRQAPGKGLEWVATISSGGSYTYYVDSVKGRFTISRDNAKNSLYLQMNSLRAEDTAVYYCARQELGSYYAMDYWGQGTTVTVSS[human IgG1 constant region omitted] light: DVVMTQTPLSLPVTPGEPASISCRSSQSIVHSNGNTYLEWYLQKPGQSPQLLIYKVSNRFSGVPDRFSGSGSGTDFTLKISRVEAEDVGVYYCFQGSHVPYTFGGGTKVEIKRTVAAPSVFIFPPSDEQLKSGTASVVCLLNNFYPREAKVQWKVDNALQSGNSQESVTEQDSKDSTYSLSSTLTLSKADYEKHKVYACEVTHQGLSSPVTKSFNRGEC",increase in maximal TNF-α production compared to D6C IgG1-Compound 2.14,~3 fold
same,increase in maximal TNF-α production compared to anti-Nectin-4 IgG1-Compound 2.14,~3 fold
